Assay results as given in patent publication US20240247076A1.

Target: cynomolgus monkey FXI-CHis protein (cynomolgus monkey)
Assay: BLI, antibody captured on sensor, antigen in solution

Binder | Kd [nM]
huFE35huv1-Ld-Fc (Fc fusion) QVQLVESGGGSVQAGGSLRLSCTASGFTFDDSDMGWYRQAPGNECELVSTISSDGRGFYADSVKGRFTISQDNSKNTVYLQMNSLRAEDTAVYYCAAGWYGSFCSGLGQGTLVTVSS[sequence of human IgG1 Fc omitted] | < 0.001
huFE35huv2-Ld-Fc (Fc fusion) QVQLVESGGGLVQPGGSLRLSCAASGFTFDDSDMGWYRQAPGNECELVSTISSDGRGFYADSVKGRFTISRDNSKNTLYLQMNSLRAEDTAVYYCAAGWYGSFCSGLGQGTLVTVSS[sequence of human IgG1 Fc omitted] | 0.00124
huFE56huv1-Ld-Fc (Fc fusion) QVQLVESGGGSVQAGGSLRLSCAASGHTYSSNYCMAWFRQAPGKEREGVAAIYSDGSTSYADSVKGRFTISKDNSKNTLYLQMNSLRAEDTAVYYCAATAYEGSWTGKQPLCLLYEYTYWGQGTLVTVSS[sequence of human IgG1 Fc omitted] | 5.93
huFE56huv2-Ld-Fc (Fc fusion) QVQLVESGGGLVQPGGSLRLSCAASGHTYSSNYCMAWFRQAPGKEREGVAAIYSDGSTSYADSVKGRFTISRDNSKNTLYLQMNSLRAEDTAVYYCAATAYEGSWTGKQPLCLLYEYTYWGQGTLVTVSS[sequence of human IgG1 Fc omitted] | 7.23
huFE13huv1-Ld-Fc (Fc fusion) QVQLVESGGGSVQAGGSLRLSCAASGYTYSMGAMAWFRQAPGKEREGVALIATSSGFISYTDSVKGRFTISQDNSKNTVYLQMNSLRAEDTAVYYCAAGTQFSWSPGSYNYWGQGTLVTVSS[sequence of human IgG1 Fc omitted] | 12.7
huFE13huv2-Ld-Fc (Fc fusion) QVQLVESGGGLVQPGGSLRLSCAASGYTYSMGAMAWFRQAPGKGLEGVSLIATSSGFISYTDSVKGRFTISRDNSKNTLYLQMNSLRAEDTAVYYCAAGTQFSWSPGSYNYWGQGTLVTVSS[sequence of human IgG1 Fc omitted] | 20.6

Next, values leading:

Kd [nM] | Binder
0.987 | huFE148huv1-Ld-Fc (Fc fusion) QVQLVESGGGSVQAGGSLRLSCAASGYTFNNNFVGWFRQAPGKEREGVAAIYSLGGSTYYADSVKGRFTISQDNSKNTVYLQMNSLRAEDTAVYYCAGAITWVPPLSHRRYTYWGQGTLVTVSS[sequence of human IgG1 Fc omitted]
0.825 | huFE148huv2-Ld-Fc (Fc fusion) QVQLVESGGGLVQPGGSLRLSCAASGYTFNNNFVGWFRQAPGKGLEGVSAIYSLGGSTYYADSVKGRFTISRDNSKNTLYLQMNSLRAEDTAVYYCAAAITWVPPLSHRRYTYWGQGTLVTVSS[sequence of human IgG1 Fc omitted]
< 0.001 | huFE97huv1-Ld-Fc (Fc fusion) QVQLVESGGGSVQAGGSLRLSCTASEFTFDDSDMAWYRQAPGNECELVSTITSDGGTYYADSVKGRFTISQDNSKNTMYLQMNSLRAEDTAVYYCAADQWGSAEGDCTSSYPGGYWGQGTLVTVSS[sequence of human IgG1 Fc omitted]
< 0.001 | huFE97huv2-Ld-Fc (Fc fusion) QVQLVESGGGLVQPGGSLRLSCAASEFTFDDSDMAWYRQAPGNECELVSTITSDGGTYYADSVKGRFTISRDNSKNTLYLQMNSLRAEDTAVYYCAADQWGSAEGDCTSSYPGGYWGQGTLVTVSS[sequence of human IgG1 Fc omitted]
